Assay results taken from patent publication US12667625B2, “Antibody-drug conjucates and their uses for the treatment of cancer” (INATHERYS, priority 2018, dated 2026).

Assays:
THP-1 cell line (CD71+) = experiment: Comparative binding on THP-1 cell line by flow cytometry; conditions: biotinylated antibodies, serial dilutions 5 to 0.05 ug/mL, streptavidin Alexa F488
Method: (§1) Serial dilutions (5 to 0.05 ug/mL) of both biotinylated antibodies (antibody A24 and antibody of ADC INA01-SDV1) were performed and incubated on THP-1 and MEC-1 cell lines. The binding of the diluted antibodies was detected by Flow cytometry using streptavidin Alexa F488 (available at ThermoFisher scientific).

Ramos cell line = experiment: Inhibition of cell proliferation, CellTiter-Glo cell viability assay, Ramos; format: cell-based; conditions: 96 hours, from 0 to 20 µg/ml
Method: (§2) Inhibition of cell proliferation was measured by using the cell viability assay CellTiter-Glo® by Promega according the manufacturer protocol. Briefly, cells were plated in 48-wells plate and incubated during 96 hours in presence or not of increasing concentration of INA01-SDV1 (from 0 to 20 µg/ml).

THP-1 cell line = experiment: Inhibition of cell proliferation, CellTiter-Glo cell viability assay, THP-1; format: cell-based; conditions: 96 hours, from 0 to 20 µg/ml
Method: as §2

[1] = system: peripheral blood mononuclear cells (PBMC); experiment: TNF-α secretion by PBMC (ELISA); format: cell-based, human; conditions: 24 hours, air-dried, wet-coated or aqueous, 0.1, 1 or 10 μg/ml
Method: To assess if INA01-SDV #1 could induce a cytokine release syndrome (CRS) in patients, TNF-α secretion by peripheral blood mononuclear cells (PBMC) was tested. TNF-α production was tested after incubation of PBMC with INA01-SDV #1 in three different conditions which represent different concentration of the ADC: highly coated (air-dried), lower coated (wet-coated) or in solution (aqueous).
PBMC were separated by Ficoll and suspended in culture medium with INA01-SDV #1 Air-dried, wet-coated or aqueous at 0.1, 1 or 10 μg/ml as previously reported for several activation procedures (Findlay L et al. J. Immunol. Meth 2008; Stebbings R et al. J. Immunol. 2007). After incubation for 24 hours at 37° C., TNF-α was assessed by enzyme-linked immunosorbent assay (ELISA). A DuoSet ELISA Development kit that contains the basic components required for the development of sandwich ELISAs to measure natural and recombinant human TNF-alpha were used.
INA01-SDV #1 is presented to PBMC in three different protocols: Air-dried, wet-coated or aqueous. • Air-dried: INA01-SDV #1 was added at 5× working concentration in 50 ul (for a final concentration of 0.1, 1 and 10 μg/ml). The plate was kept under the hood overnight, then washed twice. • Wet-coated: INA01-SDV #1 was added at 5× working concentration in 200 ul (for a final concentration of 0.1, 1 and 10 μg/ml). […]

[2] = Toxicology analysis in wild-type B6 and TfR/Tf 2Ki mice, pathological analysis of organs; format: in vivo; conditions: 5 injections at 3 mg/kg every 4 days, IP; for pathological analysis, Heart / pathological analysis, Liver: 3 mg/kg
Method: Toxicology analysis of the INA01-SDV #1 was assessed in wild-type B6 (WT) mice and CD71/transferrin double knocking mice (TfR/Tf 2Ki). Mice were injected IP with 5 injections of INA01-SDV #1 at 3 mg/kg every 4 days and sacrificed two days after the last injection.
FIG. 6 represents the macroscopic organ analysis in WT (FIG. 6A) and TfR/Tf 2Ki mice (FIG. 6B). Table 7 below represents the independent pathological analysis of each organ depicted in FIGS. 6A and 6B.

MEC-1 cell line (CD71+) = experiment: Comparative binding on MEC-1 cell line by flow cytometry; conditions: biotinylated antibodies, serial dilutions 5 to 0.05 ug/mL, streptavidin Alexa F488
Method: as §1

B1: INA01-SDV1: ADC: anti-TfR antibody mAb1 (INA01), APN linker of formula (IV), valine-citrulline, para-aminobenzyl ester, MMAE (conjugate)
heavy: QVQLVQSGPELKKPGASVKVSCKASGYTFTNQGMNWVKQAPGKGLKWMGWINTYTGEPINADDFKGRFVISLDTSASTAYLQISSLKAEDTAVYFCVREGWDSMDYWGQGTSVTVSSASTKGPSVFPLAPCSRSTSESTAALGCLVKDYFPEPVTVSWNSGALTSGVHTFPAVLQSSGLYSLSSVVTVPSSSLGTKTYTCNVDHKPSNTKVDKRV[human IgG4 Fc with S228P (EU numbers) not shown]
light: QIVLTQSPATLSVSPGERATLSCSASSSVNYMHWFQQKPGQSPRLLIYSTSNRATGIPARFSGSGSGTSYTLTISSLEPEDFAVYYCQQRSSYPLTFGQGTKLEIKRTVAAPSVFIFPPSDEQLKSGTASVVCLLNNFYPREAKVQWKVDNALQSGNSQESVTEQDSKDSTYSLSSTLTLSKADYEKHKVYACEVTHQGLSSPVTKSFNRGEC
modifications: non-natural residues
notes: ADC: anti-TfR antibody mAb1 (INA01), APN linker of formula (IV), valine-citrulline, para-aminobenzyl ester, MMAE
affinity to the CD71+ cell line (binding) (THP-1 cell line (CD71+)): identical affinity
cellular viability (Ramos cell line): Cellular viability was impaired
cellular viability (THP-1 cell line): Cellular viability was impaired
TNF-α release [1]: no TNF-α was released
pathological analysis, Lung ([2]; TfR/Tf KI mouse): Some macrophages
pathological analysis, Spleen ([2]; TfR/Tf KI mouse): Small hematopoiesis
pathological analysis, Heart ([2]; TfR/Tf KI mouse): Some Irregularities in; also recorded: Irregularity in some
pathological analysis, Liver ([2]; TfR/Tf KI mouse): Small hematopoiesis; also recorded: No necrosis; also recorded: No Steatosis; also recorded: No Fibrosis
pathological analysis, Lung ([2]; Wild-type mouse): Some macrophages
pathological analysis, Spleen ([2]; Wild-type mouse): Small hematopoiesis
pathological analysis, Heart ([2]; Wild-type mouse): Some Irregularities in; also recorded: Irregularity in some
pathological analysis, Liver ([2]; Wild-type mouse): Small hematopoiesis; also recorded: No necrosis; also recorded: No Steatosis; also recorded: No Fibrosis
affinity to the CD71+ cell line (binding) (MEC-1 cell line (CD71+)): identical affinity

Entries after “also recorded” stand apart in the source; their conditions may differ.
